Data from the supplement of paper PMC3334620.
The full ranking holds about 33,000 sequences; the median of “E-score (-0.5 to 0.5)” is about -0.04, and the highest 2% start at about 0.36. The list shows a part of the results.

Target: T1, Hmlalpha2 (UniProt P0CY09)
T1 sequence: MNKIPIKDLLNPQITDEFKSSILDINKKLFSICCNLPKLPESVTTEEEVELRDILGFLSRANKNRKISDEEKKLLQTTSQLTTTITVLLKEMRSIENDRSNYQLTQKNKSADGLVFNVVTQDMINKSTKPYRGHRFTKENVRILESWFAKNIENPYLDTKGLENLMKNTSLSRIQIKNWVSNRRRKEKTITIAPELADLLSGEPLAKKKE
Experiment: PBM E-score (8-mer binding enrichment) (E-score (-0.5 to 0.5)); higher = stronger / more preferred TF binding; most listed sequences are background and not binding sites
Conditions: protein concentration: 200 nM; construct: GST-full length
In short: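 Yeast transcription factors, full-length or as DNA-binding domains, were expressed with a GST tag using PURExpress in vitro transcription/translation. At about 100-200 nM they were applied to universal all-10-mer Agilent arrays, double-stranded by primer extension on fresh or once-stripped slides. Fluorescent anti-GST detected bound protein, and masliner normalised the scans. E-scores for ungapped eight-base words, pooled with reverse complements, came from the Universal PBM Analysis Suite.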

Row | Sequence | PBM E-score
1 | AACGGAGC | -0.165
2 | GGCTGCCA | -0.224
3 | CCCCGTAC | -0.197
4 | GGCAACAA | 0.0607
5 | AGAGATTC | -0.0365
6 | AGATCTGG | -0.17
7 | AATTCCGA | 0.101
8 | GAGATCCA | -0.2
9 | GACAATGC | 0.14
10 | CGCGATCC | -0.0112
11 | TAGTTATA | 0.228
12 | GTCAATTA | 0.183
13 | ACGGTGCG | 0.134
14 | ACACGAAA | 0.315
15 | ACCGCCGA | -0.134
16 | CTTACAAA | 0.232
17 | GTCACTGA | -0.154
18 | CATCTTCG | -0.0677
19 | ATTTCACA | 0.233
20 | TATTGTCA | 0.104
21 | ATTCTGAG | -0.145
22 | ACATGCCT | 0.3

Row | Sequence | PBM E-score
23 | AAACAAGA | 0.179
24 | AGGACTTC | -0.198
25 | GTGCGAAA | 0.0475
26 | GTGGAAAA | 0.101
27 | AGACCACG | -0.192
28 | CAAAACCC | 0.0242
29 | AGTAGCAA | 0.142
30 | AGACCCAA | -0.164
31 | CGCGCCAC | -0.045
32 | CACTCATC | -0.0518
33 | CCAGCGTC | -0.395
34 | AGCAGCGC | -0.0627
35 | GGTGAGTA | 0.135
36 | CCTTCGAG | -0.292
37 | GATTTTTA | 0.0837
38 | CCGGCGTA | 0.0423
39 | GATAGCCC | -0.16
40 | AACGTGCA | 0.172
41 | CATCTGGA | -0.164
42 | CTGCGAAA | 0.0491
43 | ACGACTCT | -0.052
44 | CGATCACC | -0.17

Row | Sequence | PBM E-score
45 | CTGTAGTA | 0.306
46 | AGCTGACT | -0.193
47 | AGCACTAG | -0.0442
48 | GTTCATCA | 0.12
49 | GCAGATAC | -0.0462
50 | CTGATATA | 0.143
51 | CCGGGTAA | 0.048
52 | GACTACCA | -0.0886
53 | CGAGCCCC | -0.261
54 | GAGGCTGC | -0.178
55 | CTGTATCA | 0.0319
56 | GAAGAATC | -0.255
57 | CAGTTCGA | 0.136
58 | CACTCTGA | -0.0277
59 | AGTGGGAA | -0.0766
60 | ATTGTTGG | 0.151
61 | CGATACCA | 0.00773
62 | CCAATAGA | -0.042
63 | AACCGTGC | 0.0444
64 | ACATTCTA | 0.244
65 | CTGACTAA | 0.0106
66 | CGGTAGCC | -0.00427

Row | Sequence | PBM E-score
67 | GGGTATAA | -0.128
68 | AGACGACT | -0.144
69 | GGATATCC | 0.0594
70 | GAATATCC | -0.134
71 | CACATTAG | -0.078
72 | ATTGCTAA | 0.0929
73 | CGGAACTA | -0.0737
74 | AGCAGTAG | -0.23
75 | AATGGTCC | -0.129
76 | CCGCCTAG | -0.214
77 | GTAGCTAC | 0.126
78 | AGACCAGA | -0.231
79 | AAGCGCAA | 0.0467
80 | GATCCGCC | -0.0473
81 | AGGGAGGA | -0.232
82 | ACTGTGGA | -0.139
83 | ATTCCCTG | -0.0261
84 | GTCGAGCA | -0.118
85 | CGCCTGAC | -0.0583
86 | ATCTGCGA | -0.0862
87 | CCCGATCG | -0.134
88 | ATGGAGTC | -0.0783

Row | Sequence | PBM E-score
89 | GAACTGCC | -0.264
90 | GACCGATA | -0.213
91 | CGGTGGAA | -0.124
92 | AACTTAAG | 0.0471
93 | CAAGTCAG | -0.157
94 | GAAGATAA | 0.242
95 | AGGGAAAG | -0.0927
96 | ACGCAACT | 0.117
97 | CTTGGATC | -0.157
98 | CTAGGCAA | -0.126
99 | ATACATTC | 0.296
100 | ACAAGAGA | 0.116
101 | AATGACAG | -0.085
102 | GACTTGCC | -0.294
103 | CTCTGTCC | -0.0998
104 | CATCACGA | 0.0466
105 | AATGACTC | -0.073
106 | CCCCTGCA | -0.0928
107 | GACATCAC | 0.0654
108 | CAATGGCC | -0.249
109 | CAGTGGGC | -0.221
110 | CGGGTGCA | -0.263
